Assay results from publication PMC4336329 (PLoS ONE, 2015).
In all, about 310,000 compounds went through this assay and about 2,200 (0.71%) showed an effect of 50% or more. The effect is printed as a negative number. Some of the results follow.

Biological target: human ether-à-go-go-related gene (hERG) potassium channel (human, UniProt Q12809)
Assay: primary screen, population patch clamp on CHO cells stably expressing hERG

Sequence of human ether-à-go-go-related gene (hERG) potassium channel (Q12809 whole entry, looked up): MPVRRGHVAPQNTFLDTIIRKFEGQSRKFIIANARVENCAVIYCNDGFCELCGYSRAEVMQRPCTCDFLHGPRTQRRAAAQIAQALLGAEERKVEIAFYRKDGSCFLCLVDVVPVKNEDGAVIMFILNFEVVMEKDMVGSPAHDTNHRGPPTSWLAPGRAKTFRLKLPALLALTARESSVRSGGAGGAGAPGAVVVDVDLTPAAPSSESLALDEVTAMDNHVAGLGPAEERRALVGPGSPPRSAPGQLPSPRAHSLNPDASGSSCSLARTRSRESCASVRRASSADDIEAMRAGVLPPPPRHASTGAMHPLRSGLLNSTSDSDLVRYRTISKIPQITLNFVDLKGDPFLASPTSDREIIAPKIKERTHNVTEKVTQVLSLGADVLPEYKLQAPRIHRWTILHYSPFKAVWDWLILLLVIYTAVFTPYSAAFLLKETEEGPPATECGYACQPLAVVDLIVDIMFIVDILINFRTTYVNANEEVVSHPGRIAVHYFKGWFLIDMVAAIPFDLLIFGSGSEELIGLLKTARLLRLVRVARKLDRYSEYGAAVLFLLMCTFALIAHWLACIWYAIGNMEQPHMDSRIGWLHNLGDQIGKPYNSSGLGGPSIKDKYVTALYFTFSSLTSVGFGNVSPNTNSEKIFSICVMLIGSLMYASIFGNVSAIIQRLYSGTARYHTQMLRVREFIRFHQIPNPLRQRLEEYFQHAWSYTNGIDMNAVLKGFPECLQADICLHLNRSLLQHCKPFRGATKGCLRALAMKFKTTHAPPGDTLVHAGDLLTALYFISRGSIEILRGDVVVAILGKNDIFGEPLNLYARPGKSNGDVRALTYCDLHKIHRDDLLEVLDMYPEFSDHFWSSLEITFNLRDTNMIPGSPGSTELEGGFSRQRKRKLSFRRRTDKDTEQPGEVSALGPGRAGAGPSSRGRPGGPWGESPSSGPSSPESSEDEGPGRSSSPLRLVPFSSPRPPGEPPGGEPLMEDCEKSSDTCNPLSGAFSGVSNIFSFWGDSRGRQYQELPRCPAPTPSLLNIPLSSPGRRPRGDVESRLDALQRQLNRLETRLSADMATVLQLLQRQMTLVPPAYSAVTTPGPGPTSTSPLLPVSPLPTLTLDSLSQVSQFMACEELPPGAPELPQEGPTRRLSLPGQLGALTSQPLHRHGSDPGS

Row | SMILES | hERG current change (%, negative = inhibition) at 1uM
1 | O=C(/C=C/c1cccc(Br)c1)NCc1ccncc1 | 6.96%
2 | COC(=O)c1ccc(Cl)c(NC(=O)CN2CCN(C)CC2)c1 | -11.3%
3 | COc1cc([N+](=O)[O-])ccc1NC(=O)CCCOc1ccc(C)cc1 | 4.14%
4 | CCCCn1c(N)c(Br)c(=O)[nH]c1=O | 6.56%
5 | CCc1ccc(NC(=O)c2cnccn2)cc1 | 8.37%
6 | CCOC12NC(=O)CC(=O)N1C(c1ccccc1)=CS2 (centres unmarked) | -8.79%
7 | CN(C)C(CNC(=O)c1cccc(S(=O)(=O)N2CC3(C)CC2CC(C)(C)C3)c1)c1ccco1 (centres unmarked) | 6.34%
8 | COc1ccc(/C=C2\CCc3ccccc3C2=O)cc1Cn1nc(C)cc1C | 4.89%
9 | CCCCN(CCO)c1ncnc2sc(-c3ccccc3)cc12 | 16.7%
10 | Cc1cc(F)ccc1NC(=O)c1cc(S(=O)(=O)N2CCCC2)cn1C | 0.672%
11 | CCCC1C2C(=O)N(c3ccccc3)C(=O)C2ON1c1ccccc1 (centres unmarked) | 14.1%
12 | COc1ccc(/C=C2/SC(=O)N(CCCCCC(=O)Nc3ccccc3C(=O)O)C2=S)cc1 | 8.35%
13 | C=C(C)C1CC=C(C)/C(=N/NC(=O)CCC(=O)Nc2ccccc2Cl)C1 (centres unmarked) | 6.51%
14 | Cn1cc(C(=O)NCc2cccs2)c(=O)c2cc(S(=O)(=O)N3CCCC3)ccc21 | -0.439%
15 | CCNC(=O)c1ccc(NC(=O)CC2SC(N3CCCCC3)=NC2=O)cc1 (centres unmarked) | -1.11%
16 | CCN(CC(=O)NCc1cccs1)C(=O)/C=C/c1ccc(OC)c(OC)c1 | 4.45%
17 | CCSc1nnc(N(CCC#N)CCC#N)s1 | 10.4%
18 | Cc1ccc(S(=O)(=O)N2CCN(Cc3ccco3)CC2)cc1C | 12.5%
19 | COc1ccc(CN2CCNC(=O)C2CC(=O)N2CCCN(C(C)=O)CC2)cc1OC (centres unmarked) | 13.6%
20 | CC(NCc1cccc(Cl)c1Cl)C(O)c1ccccc1.Cl (centres unmarked) | 7.33%
21 | COC(=O)c1c(N2C(=O)[C@H]3[C@@H](C2=O)[C@]2(C(=O)Nc4ccccc42)N2CCC[C@@H]32)sc(C)c1C | 15.5%
22 | c1csc(C(c2nnnn2C2CCCC2)N2CCOCC2)c1 (centres unmarked) | 9.48%

Row | SMILES | hERG current change (%, negative = inhibition) at 1uM
23 | CC(C)Cn1c(SCC(=O)NCc2ccco2)nnc1-c1ccncc1 | 15.3%
24 | Cc1nn(CC(=O)NCc2cccnc2)c(=O)c2ccccc12 | 15.8%
25 | O=C(Cc1cccs1)Nc1ccccc1NC(=O)Cc1cccs1 | 12%
26 | CCOC(=O)NC(Nc1sc2c(c1C(=O)OC)CCN(C)C2)(C(F)(F)F)C(F)(F)F | -3.98%
27 | CC(C)CCOc1ccc(C(=O)N2CCCC2C(=O)O)cc1 (centres unmarked) | 12.8%
28 | CCOc1ccc(-n2c(C)c(C(C)=O)c3cc(OC(C)=O)ccc32)cc1 | 9.74%
29 | O=C(O)c1ccc(NCc2nc3ccccc3n2Cc2ccccc2)cc1 | 6.28%
30 | CN(Cc1ccccc1)C(=O)C1CCN(S(=O)(=O)c2ccc(-n3cnnn3)cc2)CC1 | -62%
31 | CC(=O)c1c(C)[nH]c(C(=O)OCC(=O)NCCc2ccc(Cl)cc2)c1C | 10.1%
32 | Cc1nc(-c2cc(-c3ccc(Cl)cc3)no2)cs1 | 6.57%
33 | COC(=O)Cn1c(=NC(=O)c2sc3ccccc3c2Cl)sc2cc(S(N)(=O)=O)ccc21 | 5.81%
34 | CCC(c1nnnn1Cc1ccc2c(c1)OCO2)N1CCN(c2ccccc2)CC1 (centres unmarked) | 7.95%
35 | CCCN1CCN(c2nc(-c3cccs3)nc3ccccc23)CC1 | -16.1%
36 | CCOC(=O)N1CCN(C(=O)c2ccccc2N(C)S(C)(=O)=O)CC1 | -4.88%
37 | CC(=O)NCCC(=O)N1CCCC(C(=O)c2ccc3c4c(cccc24)CC3)C1 (centres unmarked) | -0.627%
38 | CC1=C(C(=O)OC(C)C)C(c2ccc(Br)s2)NC(=O)N1C (centres unmarked) | 3.8%
39 | Cc1csc(NC(=O)Cc2c[nH]c3ccccc23)n1 | 4.75%
40 | O=C(CSc1nc2ccccc2c(=O)[nH]1)c1ccccc1 | 8.5%
41 | O=C(OCC(=O)N1CCCc2ccccc21)c1ccccc1NCCO | 2.37%
42 | O=C1OCCC1Sc1nnc(-c2ccccc2)o1 (centres unmarked) | -9.84%
43 | CSc1ccccc1NC(=O)Nc1ccc(Cl)cc1 | -2.15%
44 | CSc1nc(C)c2c(n1)N(c1cccc(C)c1)CC2 | 19.1%
